B1: TPR 5TU (parent)
chain: GGAUCUUCUCGAUCUAACAAAAAAGACAAAUCUGCCACAAAGCUUGAGAGCAUCUUCGGAUGCAGAGGCGGCAGCCUUCGGUGGCGCGAUAGCGCCAACGUUCUCAACUAUGACACGCAAAACGCGUGCUCCGUUGAAUGGAGUUUAUCAUG

This sample is rich in variants without activity.

The data set covers variants of B1. The data set is described as follows: polymerase ribozyme fitness, log enrichment relative to wild type (log ratio); higher = more active; in vitro selection for triplet polymerase activity. A digest of the protocol:
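In triplicate, a single round of in vitro selection was run on each mutant library, PCR-built and transcribed, covering one subunit of a heterodimeric triplet polymerase ribozyme. Frozen incubation at −7 °C followed annealing with a biotinylated primer, partner subunit and triplets, and extended constructs were then gel-excised, streptavidin-captured and taken through RT-PCR. Fitness is the logarithm of genotype enrichment over wild-type enrichment, from inverse-variance-weighted replicate averages of Illumina-sequenced inputs and outputs. […] only genotypes with ≥10 input reads and ≥1 read per output were kept.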
On to A64U C85A, for which the “polymerase ribozyme fitness (log ratio)” value is at most -4.2.
As for G67U U77A G83U C87G U134A G141C U144G, the figure is at most -4.2.
The same measure for G65A G92A: at most -4.2.
The same measure for U61A G65A G67C G84U C96G U135G: at most -4.2.
For the variant A66U G68U U145G U146C, the “polymerase ribozyme fitness (log ratio)” value is at most -4.2.
For the variant A60U C72A A113C A120G, the “polymerase ribozyme fitness (log ratio)” value was at most -4.2.
With C76U A91U A107C G136A, the “polymerase ribozyme fitness (log ratio)” value is at most -4.2.
The same measure for C72G C93A A119G G126A U134C: at most -4.2.
Regarding G65A G84U A91G C103U, the “polymerase ribozyme fitness (log ratio)” value was at most -4.2.
Take G68U C85U C123U C129U G143U: the “polymerase ribozyme fitness (log ratio)” value is at most -4.2.
In the case of G71C C76U G86A C87G U104G, the “polymerase ribozyme fitness (log ratio)” value was at most -4.2.
The same measure for A73U C93A G152A: at most -4.2.
With G68A G88C U102G, the “polymerase ribozyme fitness (log ratio)” value was at most -4.2.
As to G67U C76A C85G C87G, the “polymerase ribozyme fitness (log ratio)” value is at most -4.2.
For the variant C76G G81C G84A A97C C99G U104A A142C U151A, the “polymerase ribozyme fitness (log ratio)” value is at most -4.2.
As to C76G C85U, the “polymerase ribozyme fitness (log ratio)” value is at most -4.2.
As for U77G C79U C85U, the figure is at most -4.2.
G62C C63U G68C U139A: the “polymerase ribozyme fitness (log ratio)” value is at most -4.2.
Regarding G68C C103G A119C, the “polymerase ribozyme fitness (log ratio)” value was at most -4.2.
Consider A64U G68A C87A G88A G124C, for which the “polymerase ribozyme fitness (log ratio)” value was at most -4.2.
The same measure for U61G C87G C114G A115U U146A: at most -4.2; for G70A G81U G94C U145C: at most -4.2; for C75U C108U A119G: at most -4.2.
For G62C G67A, the “polymerase ribozyme fitness (log ratio)” value was at most -4.2.
Take G74C U144A: the “polymerase ribozyme fitness (log ratio)” value was at most -4.2.
In the case of G67U G74U C87A C108U, the “polymerase ribozyme fitness (log ratio)” value is at most -4.2.
Regarding C72A A97U C105U, the “polymerase ribozyme fitness (log ratio)” value was at most -4.2.
For the variant G70U G84U U101G, the “polymerase ribozyme fitness (log ratio)” value is at most -4.2.
As to A64U G71A C96G C99G G100U G128U G143A, the “polymerase ribozyme fitness (log ratio)” value is at most -4.2.
In the case of A66C C79A C103G C149U, the “polymerase ribozyme fitness (log ratio)” value is at most -4.2.
Consider G68C C76G U90C C95A C105G, for which the “polymerase ribozyme fitness (log ratio)” value is at most -4.2.
Take C72U G81C G83C C99G: the “polymerase ribozyme fitness (log ratio)” value is at most -4.2.
On to G67U C69G G133U, for which the “polymerase ribozyme fitness (log ratio)” value was at most -4.2.
Turning to G68U G117A U148G, the “polymerase ribozyme fitness (log ratio)” value is at most -4.2.
As for G62A C72G A122C C123A, the figure is at most -4.2.
As for C69U G84A U101G C116U G133U, the figure is at most -4.2; as for U77C C95G C96A, at most -4.2.
Consider U61A C69G C87U A110U, for which the “polymerase ribozyme fitness (log ratio)” value is at most -4.2.
Turning to C75U G86A U139C, the “polymerase ribozyme fitness (log ratio)” value was at most -4.2.
A73G C116A A142U: the “polymerase ribozyme fitness (log ratio)” value is at most -4.2.
Regarding G74A C85U A106U A138U, the “polymerase ribozyme fitness (log ratio)” value was at most -4.2.
On to G68C C76G C85G G124C G143U, for which the “polymerase ribozyme fitness (log ratio)” value was at most -4.2.
For the variant U61A G62C A64C G84A C116G C118A, the “polymerase ribozyme fitness (log ratio)” value is at most -4.2.
In the case of G67A G68A C95A A119U C129A A138G C149A, the “polymerase ribozyme fitness (log ratio)” value is at most -4.2.
Regarding G62C C93G A150U, the “polymerase ribozyme fitness (log ratio)” value was at most -4.2.
Consider G74C A138C, for which the “polymerase ribozyme fitness (log ratio)” value is at most -4.2.
On to G71U G84A C131G, for which the “polymerase ribozyme fitness (log ratio)” value was at most -4.2.
Take C63A C75A G92A: the “polymerase ribozyme fitness (log ratio)” value is at most -4.2.
U77C C79G U82A G86A U145A: the “polymerase ribozyme fitness (log ratio)” value was at most -4.2.
As for C63A G65U G92C, the “polymerase ribozyme fitness (log ratio)” value is at most -4.2.
Turning to G68A C103G, the “polymerase ribozyme fitness (log ratio)” value is at most -4.2.
Take C72A A107G U139A: the “polymerase ribozyme fitness (log ratio)” value is at most -4.2.
As to U61G U90A C103G C118A A120U, the “polymerase ribozyme fitness (log ratio)” value was at most -4.2.
Turning to G71U U102G A107G, the “polymerase ribozyme fitness (log ratio)” value is at most -4.2.
On to U77C C87G C93G, for which the “polymerase ribozyme fitness (log ratio)” value is at most -4.2.
In the case of A64C G81A G83A, the “polymerase ribozyme fitness (log ratio)” value is at most -4.2.
G71A G94U C96U G100U A106U C114U: the “polymerase ribozyme fitness (log ratio)” value was at most -4.2.
As for A66C A73G U102G, the “polymerase ribozyme fitness (log ratio)” value is at most -4.2.
Regarding G67A G84A G133U A147C, the “polymerase ribozyme fitness (log ratio)” value was at most -4.2.
Regarding G71A C85A C118A G133U G140U, the “polymerase ribozyme fitness (log ratio)” value is at most -4.2.
On to C75G C85U G140U, for which the “polymerase ribozyme fitness (log ratio)” value is at most -4.2.
In the case of A64U C85G U135C U144G A150U, the “polymerase ribozyme fitness (log ratio)” value is at most -4.2.
The same measure for G71A C103A A147C: at most -4.2; for G62C A66G C87A C95U U146A: at most -4.2; for G70C C99G: at most -4.2.
For the variant G68C G128U, the “polymerase ribozyme fitness (log ratio)” value was at most -4.2.
For the variant C75G G84A A122U C132U, the “polymerase ribozyme fitness (log ratio)” value is at most -4.2.
Take C63U G74A A107U U127C: the “polymerase ribozyme fitness (log ratio)” value is at most -4.2.
Regarding A66C G86U U90C C108U U151A, the “polymerase ribozyme fitness (log ratio)” value was at most -4.2.
On to G65U G83A C105U G128U, for which the “polymerase ribozyme fitness (log ratio)” value is at most -4.2.
Consider A73G U90G A119G, for which the “polymerase ribozyme fitness (log ratio)” value was at most -4.2.
As for G67C C79U A91U U144A, the “polymerase ribozyme fitness (log ratio)” value was at most -4.2.
For the variant G65U G83U A142U, the “polymerase ribozyme fitness (log ratio)” value was at most -4.2.
For the variant C63U G65A C87A U134C, the “polymerase ribozyme fitness (log ratio)” value was at most -4.2.
The same measure for C69U C96U A97U G100C: at most -4.2; for C75A C93G: at most -4.2.
With G62U G100U C103G C108G, the “polymerase ribozyme fitness (log ratio)” value is at most -4.2.
Consider C76U U104C U109G C118G G141C, for which the “polymerase ribozyme fitness (log ratio)” value was at most -4.2.
U61G G71A C96G U144C: the “polymerase ribozyme fitness (log ratio)” value was at most -4.2.
For the variant A73G U102G C116A U146G U148G, the “polymerase ribozyme fitness (log ratio)” value is at most -4.2.
Consider G71U C149G, for which the “polymerase ribozyme fitness (log ratio)” value is at most -4.2.
As for G62U G84U C93U A107U, the “polymerase ribozyme fitness (log ratio)” value is at most -4.2.
The same measure for C69U C76A A89G C96G C118G A122G: at most -4.2; for A64G A89G A119U U146C: at most -4.2.

(Values after the RNAGym collection of RNA variant scans (doi:10.1073/pnas.2313332121).)
